{"source": "PubChem BioAssay AID686978", "about": "(National Center for Advancing Translational Sciences (NCATS), 2013)", "note": "The campaign covered roughly 420,000 compounds. About 64,000 (15%) were called active. The shares of active, inactive and inconclusive entries below differ from those in the screen. Calls come from the whole dose curve; as a rule, active = well fitted inhibition curve with a large enough effect; inconclusive = small, poorly fitted or top-dose-only effect; inactive = flat fitted curve, though single readings scatter. No potency is given beside an inconclusive call; the fits are too rough. % is set by controls: 0 for no effect and ±100 for the full control effect; potency is the fitted concentration of half-maximal effect; tags give direction and shape of the fitted curve.", "data": [{"assay": "qHTS for Inhibitors of human tyrosyl-DNA phosphodiesterase 1 (TDP1): qHTS in cells in absence of CPT; note: nearly all actives have a fitted effect of over 55% in size", "settings": "DT40 Tdp1-/- hTDP1 cells, no CPT, ATP luminescence, 48 h; activity change, negative = growth inhibition: at 46.2 µM (top of the series) unless noted", "how_it_was_run": "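Growth kinetics read by CellTiter-Glo luminescence after ≥48 hr at 37 °C. Cells: DT40 Tdp1-/- stably carrying human TDP1, 400 per well, compound exposure in the absence of CPT (DMSO vehicle).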", "values": [{"smiles": "CCN(CC)c1ccc(NC(=O)c2ccco2)c(C)c1", "Potency": "inconclusive [inhibitor, partial curve]"}, {"smiles": "O=C(c1cc(-c2ccc(Cl)cc2Cl)on1)N1CCOCC1", "Potency": "inconclusive [inhibitor, single point]"}, {"smiles": "COc1ccccc1/C=N/NS(=O)(=O)c1ccccc1", "activity change, negative = growth inhibition": "inactive: -28.8%"}, {"smiles": "Cc1ccc(O)c(C(CC(=O)NCC2(c3ccccc3)CCCC2)c2ccccc2)c1", "note": "(stereo not drawn)", "Potency": "inconclusive [inhibitor, single point]"}, {"smiles": "CCOc1ccc(CNC(=O)C2CCN(c3nnc(-n4cccc4CNc4ccc(C)cc4)s3)CC2)cc1OC", "Potency": "inconclusive [inhibitor, partial curve]"}, {"smiles": "CC1(C)CC(N2CCN(CCO)CC2)=CC(=S)N1", "activity change, negative = growth inhibition": "inactive: 6.45%"}, {"smiles": "CCOc1ccc(C(C(=O)NC2CCCCC2)N(C(=O)c2csnn2)C2CC2)cc1", "note": "(stereo not drawn)", "Potency": "inconclusive [inhibitor, single point]"}, {"smiles": "Cc1ccc2nc(C(Cl)(Cl)Cl)nc(N/N=C/c3ccncc3)c2c1", "activity change, negative = growth inhibition": "inconclusive: -30.7% [inhibitor]"}, {"smiles": "CC1(C)CC2CC(C)(CN2C(=O)c2cc(-c3ccccc3O)on2)C1", "note": "(stereo not drawn)", "Potency": "active: 13 µM"}, {"smiles": "COc1ccc(-c2cc(C(F)F)n3ncc(C(=O)N4CCN(C(=O)c5ccco5)CC4)c3n2)cc1", "Potency": "inconclusive [inhibitor, partial curve, poor fit]"}, {"smiles": "CCC(C(=O)OC)n1cnc2c(nnn2-c2ccc(C)cc2)c1=O", "note": "(stereo not drawn)", "Potency": "inconclusive [inhibitor, single point]"}, {"smiles": "CN1CCN(C(=O)CCc2ccc(S(=O)(=O)NC3CCCCC3)cc2)CC1", "activity change, negative = growth inhibition": "inactive: -2.4%"}, {"smiles": "O=C(Nc1ccccc1N1CCCC1)c1ccccc1F", "activity change, negative = growth inhibition": "inactive: -22.1%"}, {"smiles": "CCOC(=O)C(C)Sc1ccc2nnc(-c3ccc(F)cc3)n2n1", "note": "(stereo not drawn)", "Potency": "inconclusive [inhibitor, partial curve, poor fit]"}, {"smiles": "CCOc1ccc(Br)cc1C(=O)N/N=C/c1c[nH]c2ccccc12", "Potency": "inconclusive [inhibitor, single point]"}, {"smiles": "CC(C)(C)n1nnnc1C(CCc1ccccc1)N1CCN(C/C=C/c2ccccc2)CC1", "note": "(stereo not drawn)", "Potency": "active: 14.6 µM"}, {"smiles": "CCOC(=O)c1c(SCCN2CCCC2)n(-c2ccccc2)c(=S)n(-c2ccccc2)c1=O", "Potency": "active: 5.17 µM"}, {"smiles": "CC1CCCC(NC(=O)C2N(CCCN3CCCC3)C(=O)C3C(C(=O)Nc4ccc(Cl)cc4)C4C=CC32O4)C1C", "note": "(stereo not drawn)", "Potency": "inconclusive [inhibitor, single point]"}, {"smiles": "Cc1ccc(CNC(=O)CCCCn2c(=O)c3ccccc3n(Cc3ccc(Cl)cc3)c2=O)cc1", "activity change, negative = growth inhibition": "inconclusive: -22.6% [inhibitor]"}, {"smiles": "Cc1ccc(C(=O)OCC(=O)Nc2ccc(N3CCOCC3)cc2)cc1", "activity change, negative = growth inhibition": "inactive: -1.63%"}, {"smiles": "Cc1nc2sc(C(=O)NCc3ccc(Cl)cc3)c(NC(=O)c3ccccc3)c2c(C)c1C", "Potency": "inconclusive [inhibitor, single point]"}, {"smiles": "Cc1ccccc1NC(=O)c1nn(C)c2c1CS(=O)(=O)c1ccccc1-2", "Potency": "inconclusive [inhibitor, single point]"}, {"smiles": "CC(=O)Nc1ccc(C2=NNC(=Nc3ccc(S(=O)(=O)N4CCOCC4)cc3)SC2)cc1", "Potency": "inconclusive [inhibitor, single point]"}, {"smiles": "CC(=O)c1cccc(NC(=O)N2CCCc3ccccc32)c1", "activity change, negative = growth inhibition": "inactive: -8.99%"}, {"smiles": "CC12CCC3c4ccc(O)cc4CCC3C1CC(=NO)C2O", "note": "(stereo not drawn)", "Potency": "inconclusive [inhibitor, single point]"}, {"smiles": "CCOc1cc(C2c3c(oc4ccccc4c3=O)C(=O)N2Cc2ccc3c(c2)OCO3)ccc1O", "note": "(stereo not drawn)", "Potency": "inconclusive [inhibitor, single point]"}, {"smiles": "COc1ccc(/C=C/C(=O)c2ccc(C)s2)cc1", "Potency": "inconclusive [inhibitor, partial curve, poor fit]"}, {"smiles": "COc1ccccc1C(=O)Nc1ccnn1C1CCN(Cc2ccc3nonc3c2)CC1", "Potency": "inconclusive [inhibitor, single point]"}, {"smiles": "O=C(CSc1ccc(-c2ccco2)nn1)Nc1cccc(F)c1", "Potency": "active: 20.6 µM"}, {"smiles": "O[C@@H]1C2CCCC1[C@]1(O)CCCCC1C2", "note": "(stereo partly drawn)", "activity change, negative = growth inhibition": "inconclusive: -10.8% [inhibitor]"}, {"smiles": "Cc1ccc(-n2ncc(C(=O)Nc3ccc(C)c(F)c3)c2C2CCN(C(=O)OC(C)(C)C)CC2)cc1C", "Potency": "inconclusive [inhibitor, single point]"}, {"smiles": "COc1cccc(/C=N/NC(=O)CC(C)O)c1OC/C=C/c1ccccc1", "note": "(stereo not drawn)", "Potency": "inconclusive [inhibitor, partial curve]"}, {"smiles": "O=C(COc1cc2oc(=O)c3c(c2cc1Cl)CCC3)NCC(O)c1ccccc1", "note": "(stereo not drawn)", "Potency": "inconclusive [inhibitor, single point]"}, {"smiles": "N#Cc1ccc(OCC(=O)Nc2nc(-c3cccnc3)cs2)cc1", "activity change, negative = growth inhibition": "inactive: -3.8%"}, {"smiles": "NC(=O)c1nsc(C(=O)N(c2ccc(F)cc2)C(C(=O)NCC2CCCO2)c2c[nH]c3ccccc23)c1N", "note": "(stereo not drawn)", "Potency": "inconclusive [inhibitor, single point]"}, {"smiles": "COc1cccc(N2CCN(c3nc4ccc(C(=O)c5ccccc5)cc4n4c(C)nnc34)CC2)c1", "Potency": "active: 16.4 µM"}, {"smiles": "CN(C)c1ccc(CN(C(=O)c2ccc(Cl)c([N+](=O)[O-])c2)C2CCS(=O)(=O)C2)cc1", "note": "(stereo not drawn)", "Potency": "inconclusive [inhibitor, single point]"}, {"smiles": "CCc1ccccc1NC(=O)CSc1nnc([C@@H]2CCCN2C(=O)OC(C)(C)C)o1", "Potency": "inconclusive [inhibitor, single point]"}, {"smiles": "CCC(C(=O)OCc1cc(=O)n2nc(CCOC)sc2n1)c1ccccc1", "note": "(stereo not drawn)", "Potency": "inconclusive [inhibitor, single point]"}, {"smiles": "Nn1c(SCc2cn3cc(Cl)ccc3n2)nnc1-c1ccncc1", "activity change, negative = growth inhibition": "inactive: -6.61%"}, {"smiles": "Cc1nc2ccccc2c2oc(C(=O)NCCCN3CCCC(C)C3)cc12", "note": "(stereo not drawn)", "Potency": "inconclusive [inhibitor, single point]"}, {"smiles": "C/C=C/n1ccnc1CC(O)(c1ccccc1)c1ccc(C)cc1", "note": "(stereo not drawn)", "Potency": "inconclusive [inhibitor, single point]"}, {"smiles": "CCCCC(=O)NC(=S)Nc1cccc(NC(=O)c2ccco2)c1", "activity change, negative = growth inhibition": "inactive: -25.2%"}, {"smiles": "CCN(CC)CCCN=C1N[C@@H](c2cccc(C(F)(F)F)c2)C(C(=O)OC)=C(C)N1CC", "activity change, negative = growth inhibition": "inactive: -86.3%"}, {"smiles": "Cc1ccc(NC(=O)c2cc(C)n(-c3ccccc3)c2C)cc1", "Potency": "inconclusive [inhibitor, single point]"}, {"smiles": "Cc1cc(C)c2c(=O)cc(C(=O)Nc3ccc(S(=O)(=O)Nc4nc(C)cc(C)n4)cc3)oc2c1", "Potency": "inconclusive [inhibitor, single point]"}, {"smiles": "COc1cc(NC(=O)c2c(OC)cccc2OC)ccc1NC(=O)c1cc2ccccc2o1", "Potency": "inconclusive [inhibitor, single point]"}, {"smiles": "COC(=O)C1CCCN1C(=O)COc1ccc(Cl)cc1Br", "note": "(stereo not drawn)", "Potency": "inconclusive [inhibitor, single point]"}, {"smiles": "CC(Oc1ccc(Cl)cc1Cl)C(=O)NNC(=O)C(=O)N1CCCC1", "note": "(stereo not drawn)", "Potency": "inconclusive [inhibitor, partial curve]"}, {"smiles": "c1ccc(OCCNc2ccn3nc(-c4ccccc4)cc3n2)cc1", "Potency": "inconclusive [inhibitor, single point]"}, {"smiles": "COc1cc(OC)cc(C(=O)N2CC(=O)Nc3ccccc32)c1", "Potency": "active: 1.3 µM"}, {"smiles": "CCc1ccc(NC(=S)/N=C(\\N)Nc2nc(C)c3cc(CC)ccc3n2)cc1", "Potency": "inconclusive [inhibitor, single point]"}, {"smiles": "COc1cc(-c2nc3cnccn3c2NC(C)(C)CC(C)(C)C)ccc1O", "Potency": "inconclusive [inhibitor, partial curve]"}, {"smiles": "Cc1noc(C)c1C(=O)N1CCC2(CC1)CN(c1ccccc1)C2", "Potency": "inconclusive [inhibitor, single point]"}, {"smiles": "CN1CCN(C(=O)c2ccccc2NC(=O)c2sc3ccccc3c2Cl)CC1", "Potency": "inconclusive [inhibitor, single point]"}, {"smiles": "O=C(CNC(=O)c1ccc(Br)cc1)NC1CC1", "activity change, negative = growth inhibition": "inactive: -0.73%"}, {"smiles": "Cc1cc(-c2ccccc2)nc(N/N=C/c2ccc([N+](=O)[O-])cc2)n1", "Potency": "inconclusive [inhibitor, single point]"}, {"smiles": "Cc1cc2nc(CCN3CCOCC3)n(S(=O)(=O)c3ccc(C(C)(C)C)cc3)c2cc1C", "Potency": "inconclusive [inhibitor, single point]"}, {"smiles": "O=[N+]([O-])c1ccc2nc(-c3ccccn3)[nH]c2c1", "Potency": "active: 1.16 µM"}, {"smiles": "S=C(Nc1ccc(Br)cc1Cl)N1CCC2(CC1)OCCO2", "activity change, negative = growth inhibition": "inactive: -14.2%"}, {"smiles": "CSc1ccc(/C=N/Nc2nc(C)cc(C)n2)cc1", "Potency": "inconclusive [inhibitor, single point]"}, {"smiles": "O=C1C(Cl)=C(NCc2cccnc2)C(=O)c2ccccc21", "Potency": "active: 8.2 µM"}, {"smiles": "Cc1ccc2c(c1)N(C(=O)CCC(=O)NC1CCCCCC1)CC(C)O2", "note": "(stereo not drawn)", "Potency": "inconclusive [inhibitor, single point]"}, {"smiles": "Cc1c(OC(C)C(=O)NCc2ccncc2)ccc2c3c(c(=O)oc12)CCC3", "note": "(stereo not drawn)", "Potency": "inconclusive [inhibitor, single point]"}, {"smiles": "CCN(CC)S(=O)(=O)c1ccc(C(=O)Nc2nnc(C(C)C)s2)cc1", "activity change, negative = growth inhibition": "inactive: -7.73%"}, {"smiles": "Cc1n[nH]c(=S)n1/N=C/c1ccc(OCc2ccc(Cl)cc2)cc1", "Potency": "inconclusive [inhibitor, single point]"}, {"smiles": "O=C(Nc1ccc2nc(SCC(=O)N3CCCC3)sc2c1)c1ccc(F)cc1", "activity change, negative = growth inhibition": "inactive: -18.9%"}, {"smiles": "COc1ccc(OC)c(NC(=O)c2cccc(NC(=O)c3ccco3)c2)c1", "Potency": "inconclusive [inhibitor, single point]"}]}]}
